Measured values reported in paper PMC5882232 (Nature Communications, 2013).

Target: the molecule itself
Assay: native gel or EMSA

B1: TRPA1a-EGFP (mouse TRPA1a, full-length TRPA1, tagged with EGFP) (natural protein)
chain: [… about 700 residues …]MMNLGSYCLGLIPMTLLVVKIQPGMAFNSTGIINGTSSTHEERIDTLNSFPIKICMILVFLSSIFGYCKEVIQIFQQKRNYFLDYNNALEWVIYTTSIIFVLPLFLNIPAYMQWQCGAIAIFFYWMNFLLYLQRFENCGIFIVMLEVIFKTLLRSTGVFIFLLLAFGLSFYVLLNFQDAFSTPLLSLIQTFSMMLGDINYRDAFLEPLFRNELAYPVLTFGQLIAFTMFVPIVLMNLLI[… about 150 residues …]
stoichiometry N: 4
